Experimental data from article PMC10516938, “Conformational dynamics of cohesin/Scc2 loading complex are regulated by Smc3 acetylation and ATP binding” (Nature Communications, 2023).
Results are given in words; binding and its absence hold for the method and conditions named. In cells and extracts the contact can be indirect. Some entries that bind do so weakly or less than the wild type. For part of these data: Sequences can lack the tags named with a protein.

T1: Scc1-PK (S. cerevisiae) (UniProt Q12158)
T1 sequence: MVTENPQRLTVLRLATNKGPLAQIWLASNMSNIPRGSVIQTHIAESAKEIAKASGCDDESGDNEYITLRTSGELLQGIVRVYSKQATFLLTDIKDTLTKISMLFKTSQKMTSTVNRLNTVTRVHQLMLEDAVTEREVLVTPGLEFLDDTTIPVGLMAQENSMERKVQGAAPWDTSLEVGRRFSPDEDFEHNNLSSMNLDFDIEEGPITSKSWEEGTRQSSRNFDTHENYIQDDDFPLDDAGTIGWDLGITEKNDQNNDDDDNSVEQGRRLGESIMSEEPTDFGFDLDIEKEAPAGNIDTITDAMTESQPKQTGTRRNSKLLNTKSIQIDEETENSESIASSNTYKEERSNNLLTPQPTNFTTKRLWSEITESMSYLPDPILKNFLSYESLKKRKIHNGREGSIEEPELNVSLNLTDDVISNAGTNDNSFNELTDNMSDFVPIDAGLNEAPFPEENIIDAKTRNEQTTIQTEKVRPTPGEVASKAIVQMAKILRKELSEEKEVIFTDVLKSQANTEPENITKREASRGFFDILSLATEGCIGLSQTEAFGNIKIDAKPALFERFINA

T2: Smc3 Q67C (S. cerevisiae) (UniProt P47037)
T2 sequence: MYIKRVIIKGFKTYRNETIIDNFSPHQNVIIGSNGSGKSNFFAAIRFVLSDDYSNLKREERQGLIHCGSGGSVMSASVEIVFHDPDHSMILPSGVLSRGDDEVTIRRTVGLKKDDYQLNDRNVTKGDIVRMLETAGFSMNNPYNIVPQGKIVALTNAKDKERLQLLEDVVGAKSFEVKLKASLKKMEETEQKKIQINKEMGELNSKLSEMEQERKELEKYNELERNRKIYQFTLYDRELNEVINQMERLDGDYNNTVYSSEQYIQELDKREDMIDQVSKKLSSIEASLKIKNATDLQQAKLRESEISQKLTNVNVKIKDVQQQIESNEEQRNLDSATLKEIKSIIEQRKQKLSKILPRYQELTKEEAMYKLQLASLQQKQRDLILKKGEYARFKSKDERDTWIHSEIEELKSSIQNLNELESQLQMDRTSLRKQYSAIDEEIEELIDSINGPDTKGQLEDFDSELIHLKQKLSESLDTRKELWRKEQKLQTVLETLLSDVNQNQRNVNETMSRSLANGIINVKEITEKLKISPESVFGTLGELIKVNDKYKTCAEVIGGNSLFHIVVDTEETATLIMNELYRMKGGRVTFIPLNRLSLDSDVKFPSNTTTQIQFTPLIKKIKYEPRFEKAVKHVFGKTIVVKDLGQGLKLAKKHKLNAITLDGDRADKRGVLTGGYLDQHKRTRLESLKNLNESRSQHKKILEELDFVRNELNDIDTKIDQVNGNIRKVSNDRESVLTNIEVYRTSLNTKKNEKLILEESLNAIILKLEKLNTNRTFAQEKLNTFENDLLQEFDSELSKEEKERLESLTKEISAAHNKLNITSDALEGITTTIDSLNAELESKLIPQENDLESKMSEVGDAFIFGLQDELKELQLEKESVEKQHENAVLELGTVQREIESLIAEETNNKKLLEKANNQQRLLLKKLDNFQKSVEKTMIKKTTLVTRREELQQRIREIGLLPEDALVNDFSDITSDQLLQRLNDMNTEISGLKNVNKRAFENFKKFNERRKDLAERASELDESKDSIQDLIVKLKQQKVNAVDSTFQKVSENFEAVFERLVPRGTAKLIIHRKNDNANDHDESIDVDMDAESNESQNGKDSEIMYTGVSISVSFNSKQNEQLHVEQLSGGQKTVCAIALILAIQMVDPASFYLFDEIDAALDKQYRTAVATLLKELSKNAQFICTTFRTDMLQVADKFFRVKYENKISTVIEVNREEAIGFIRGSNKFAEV


How the values were obtained:
Scc1-PK (S. cerevisiae) = target: T1, Scc1-PK (S. cerevisiae); test: co-IP; Scc1-PK immunoprecipitated with anti-PK from whole-cell extracts of cross-linker-treated yeast cells (exponentially grown or late G1 arrested); co-precipitated Smc3-HA, Smc1-Myc or Scc2-FLAG detected by western blot
[1] = target: T2, Smc3 Q67C (S. cerevisiae); test: cross-linking; in vivo BMOE cross-link of cysteine pairs in exponentially grown yeast cells (on ice, 6 min); Scc1-PK immunoprecipitated, western blot

Row | binding (Scc1-PK (S. cerevisiae)) | binding [1] | Binder
1 | binds | – | Scc2-6xFLAG (protein, UniProt Q04002 1-1493) MSYPGKDKNIPGRIIEALEDLPLSYLVPKDGLAALVNAPMRVSLPFDKTIFTSADDGRDVNINVLGTANSTTSSIKNEAEKERLVFKRPSNFTSSANSVDYVPTNFLEGLSPLAQSVLSTHKGLNDSINIEKKSEIVSRPEAKHKLESVTSNAGNLSFNDNSSNKKTKTSTGVTMTQANLAEQYLNDLKNILDIVGFDQNSAEIGNIEYWLQLPNKKFVLTTNCLTKLQMTIKNITDNPQLSNSIEITWLLRLLDVMVCNIKFSKSSLKMGLDDSMLRYIALLSTIVLFNIFLLGKNDSNLHRESYIMEPVNFLSDLIESLKILTIEYGSLKIEFDTFQEALELLPKYIRNGPFLDDNVTAKLVYIFSDLLMNNDIEATTNIQFQSFWDNVKRISSDILVSLFGSFDQQRGFIIEELLSHIEKLPTKRIQKKLRKVGNQNIYITDFTFTLMSMLENINCYSFCNQMKDIAPENIDLLKNEYKKQEEFLFNIVEHINDTILERFFKNPSALRYVIDNFVQDLLLLISSPQWPVTEKILSSLLKRLLSVYSPSMQVSANIETICLQLIGNIGSTIFDIKCSTRDHEDNNLIKMINYPETLPHFFKSFEECIAYNETIKCRRSATRFLWNLRLGTILILEEYTKDAKEQIITVDNELKKILEQIKDGGLGPELENREADFSTIKLDYFSILHAFELLNLYDPYLKLILSLLAKDKIKLRSTAIKCLSMLASKDKVILSNPMVKETIHRRLNDSSASVKDAILDLVSINSSYFEFYQQINNNYNDDSIMVRKHVLRINEKMYDETNDIVTKVYVIARILMKIEDEEDNIIDMARLILLNRWILKVHEVLDQPEKLKEISSSVLLVMSRVAIMNEKCSQLFDLFLNFYLLNKEAHSKEAYDKITHVLTILTDFLVQKIVELNSDDTNEKNSIVDKQNFLNLLAKFADSTVSFLTKDHITALYPYMVSDEKSDFHYYILQVFRCTFEKLANFKQKFLYDLETTLLSRLPKMNVREIDEAMPLIWSVATHRHDTARVAKACSSCLSHLHPYINKANNEEAAIVVDGKLQRLIYLSTGFARFCFPKPSNDKIAFLQEGETLYEHITKCLLVLSKDKITHVIRRVAVKNLTKLCGNHPKLFNSRHVLHLLDKEFQSDQLDIKLVILESLYDLFLLEERKSVRNTGVNSTLSSNSILKKKLLKTNRVEFANDGVCSALATRFLDNILQLCLLRDLKNSLVAIRLLKLILKFGYTNPSHSIPTVIALFASTSQYIRHVAYELLEDLFEKYETLVFSSLSRGVTKAIHYSIHTDEKYYYKHDHFLSLLEKLCGTGKKNGPKFFKVLKRIMQSYLDDITDLTSTNSSVQKSIFVLCTNISNITFVSQYDLVSLLKTIDLTTDRLKEVIMDEIGDNVSSLSVSEEKLSGIILIQLSLQDLGTYLLHLYGLRDDVLLLDIVEESELKNKQLPAKKPDISKFSAQLENIEQYSSNGKLLTYFRKHVKDT
2 | – | binds | Scc2 S1171C (protein, UniProt Q04002 1-1493) MSYPGKDKNIPGRIIEALEDLPLSYLVPKDGLAALVNAPMRVSLPFDKTIFTSADDGRDVNINVLGTANSTTSSIKNEAEKERLVFKRPSNFTSSANSVDYVPTNFLEGLSPLAQSVLSTHKGLNDSINIEKKSEIVSRPEAKHKLESVTSNAGNLSFNDNSSNKKTKTSTGVTMTQANLAEQYLNDLKNILDIVGFDQNSAEIGNIEYWLQLPNKKFVLTTNCLTKLQMTIKNITDNPQLSNSIEITWLLRLLDVMVCNIKFSKSSLKMGLDDSMLRYIALLSTIVLFNIFLLGKNDSNLHRESYIMEPVNFLSDLIESLKILTIEYGSLKIEFDTFQEALELLPKYIRNGPFLDDNVTAKLVYIFSDLLMNNDIEATTNIQFQSFWDNVKRISSDILVSLFGSFDQQRGFIIEELLSHIEKLPTKRIQKKLRKVGNQNIYITDFTFTLMSMLENINCYSFCNQMKDIAPENIDLLKNEYKKQEEFLFNIVEHINDTILERFFKNPSALRYVIDNFVQDLLLLISSPQWPVTEKILSSLLKRLLSVYSPSMQVSANIETICLQLIGNIGSTIFDIKCSTRDHEDNNLIKMINYPETLPHFFKSFEECIAYNETIKCRRSATRFLWNLRLGTILILEEYTKDAKEQIITVDNELKKILEQIKDGGLGPELENREADFSTIKLDYFSILHAFELLNLYDPYLKLILSLLAKDKIKLRSTAIKCLSMLASKDKVILSNPMVKETIHRRLNDSSASVKDAILDLVSINSSYFEFYQQINNNYNDDSIMVRKHVLRINEKMYDETNDIVTKVYVIARILMKIEDEEDNIIDMARLILLNRWILKVHEVLDQPEKLKEISSSVLLVMSRVAIMNEKCSQLFDLFLNFYLLNKEAHSKEAYDKITHVLTILTDFLVQKIVELNSDDTNEKNSIVDKQNFLNLLAKFADSTVSFLTKDHITALYPYMVSDEKSDFHYYILQVFRCTFEKLANFKQKFLYDLETTLLSRLPKMNVREIDEAMPLIWSVATHRHDTARVAKACSSCLSHLHPYINKANNEEAAIVVDGKLQRLIYLSTGFARFCFPKPSNDKIAFLQEGETLYEHITKCLLVLSKDKITHVIRRVAVKNLTKLCGNHPKLFNSRHVLHLLDKEFQSDQLDIKLVILESLYDLFLLEERKCVRNTGVNSTLSSNSILKKKLLKTNRVEFANDGVCSALATRFLDNILQLCLLRDLKNSLVAIRLLKLILKFGYTNPSHSIPTVIALFASTSQYIRHVAYELLEDLFEKYETLVFSSLSRGVTKAIHYSIHTDEKYYYKHDHFLSLLEKLCGTGKKNGPKFFKVLKRIMQSYLDDITDLTSTNSSVQKSIFVLCTNISNITFVSQYDLVSLLKTIDLTTDRLKEVIMDEIGDNVSSLSVSEEKLSGIILIQLSLQDLGTYLLHLYGLRDDVLLLDIVEESELKNKQLPAKKPDISKFSAQLENIEQYSSNGKLLTYFRKHVKDT
3 | binds | – | Scc2 D369C T1175C (natural protein, S. cerevisiae, UniProt Q04002 1-1493, looked up, Scc2, S. cerevisiae; source: S. cerevisiae W303, late G1 arrested cells, whole-cell extract) MSYPGKDKNIPGRIIEALEDLPLSYLVPKDGLAALVNAPMRVSLPFDKTIFTSADDGRDVNINVLGTANSTTSSIKNEAEKERLVFKRPSNFTSSANSVDYVPTNFLEGLSPLAQSVLSTHKGLNDSINIEKKSEIVSRPEAKHKLESVTSNAGNLSFNDNSSNKKTKTSTGVTMTQANLAEQYLNDLKNILDIVGFDQNSAEIGNIEYWLQLPNKKFVLTTNCLTKLQMTIKNITDNPQLSNSIEITWLLRLLDVMVCNIKFSKSSLKMGLDDSMLRYIALLSTIVLFNIFLLGKNDSNLHRESYIMEPVNFLSDLIESLKILTIEYGSLKIEFDTFQEALELLPKYIRNGPFLDDNVTAKLVYIFSCLLMNNDIEATTNIQFQSFWDNVKRISSDILVSLFGSFDQQRGFIIEELLSHIEKLPTKRIQKKLRKVGNQNIYITDFTFTLMSMLENINCYSFCNQMKDIAPENIDLLKNEYKKQEEFLFNIVEHINDTILERFFKNPSALRYVIDNFVQDLLLLISSPQWPVTEKILSSLLKRLLSVYSPSMQVSANIETICLQLIGNIGSTIFDIKCSTRDHEDNNLIKMINYPETLPHFFKSFEECIAYNETIKCRRSATRFLWNLRLGTILILEEYTKDAKEQIITVDNELKKILEQIKDGGLGPELENREADFSTIKLDYFSILHAFELLNLYDPYLKLILSLLAKDKIKLRSTAIKCLSMLASKDKVILSNPMVKETIHRRLNDSSASVKDAILDLVSINSSYFEFYQQINNNYNDDSIMVRKHVLRINEKMYDETNDIVTKVYVIARILMKIEDEEDNIIDMARLILLNRWILKVHEVLDQPEKLKEISSSVLLVMSRVAIMNEKCSQLFDLFLNFYLLNKEAHSKEAYDKITHVLTILTDFLVQKIVELNSDDTNEKNSIVDKQNFLNLLAKFADSTVSFLTKDHITALYPYMVSDEKSDFHYYILQVFRCTFEKLANFKQKFLYDLETTLLSRLPKMNVREIDEAMPLIWSVATHRHDTARVAKACSSCLSHLHPYINKANNEEAAIVVDGKLQRLIYLSTGFARFCFPKPSNDKIAFLQEGETLYEHITKCLLVLSKDKITHVIRRVAVKNLTKLCGNHPKLFNSRHVLHLLDKEFQSDQLDIKLVILESLYDLFLLEERKSVRNCGVNSTLSSNSILKKKLLKTNRVEFANDGVCSALATRFLDNILQLCLLRDLKNSLVAIRLLKLILKFGYTNPSHSIPTVIALFASTSQYIRHVAYELLEDLFEKYETLVFSSLSRGVTKAIHYSIHTDEKYYYKHDHFLSLLEKLCGTGKKNGPKFFKVLKRIMQSYLDDITDLTSTNSSVQKSIFVLCTNISNITFVSQYDLVSLLKTIDLTTDRLKEVIMDEIGDNVSSLSVSEEKLSGIILIQLSLQDLGTYLLHLYGLRDDVLLLDIVEESELKNKQLPAKKPDISKFSAQLENIEQYSSNGKLLTYFRKHVKDT
